Measured values taken from the supplement of paper PMC10115384.
Human monoclonal antibodies (heavy:light variable regions, translated from the printed DNA). IC50 against SARS-CoV-2 spike pseudoviruses, on VSV particles in 293T-ACE2 cells (24 h) or MLV particles in HeLa-ACE2 cells (72 h); lower = stronger; >1.0 µg/ml as printed. No active / inactive call per row; the paper counts an IC50 of 0.4 µg/ml or less on any variant as neutralizing. Only 98 of the paper's 459 antibodies have neutralization values; the two systems are not on one scale.

B1: ADI-67690 (protein)
chain 1: EVQLVESGGGLVQPGRSLRLSCAAFGFTFDDYAMHWVRQAPGKGLEWVSGISWNSGTIGYVDSVQGRFFISRDNAKNSLYLQMNNLRPEDTAFYYCVKEEGSEKYYYDSSGQGYFDLWGRGTLVTVSS
chain 2: QSVLTQPPSASGTPGQRVTISCSGNSSNIGSNPVNWYQQLPGTAPKLLIYRNNQRPSGVPDRFSGSKSGTSASLAISGLQSEDEADYYCTTWDGSLHGHWVFGGGTKLTVL
B2: ADI-67747 (protein)
chain 1: QVQLQESGPGLVKPSETLSLTCTVSGASISRYYWSWIRQTPGKGLEWMGCIHDSGSTNYNPSLESRVTISRDTPKNQFSLNLSSVTASDTAVYYCARRGLGYCSTTRCYSAFDIWGQGTMVTVSS
chain 2: DIQMTQSPSSLSASVGDRVTITCRASQSINNYLNWYQQKPGKVPNLLIYGASSLQSGVPSRFSGSGSGTDFTLTINSLQPEDFASYYCQQSYSPPYTFGQGTKLEIK
B3: ADI-67831 (protein)
chain 1: EVQLVESGGGLVQPGRSLRLSCTASAFTSGDYAMSWFRQAPGKGLEWVGFIRSKAFGGTTQYAASVKGRFTISRDDSKSIAYLQMNSLKTEDTAVYYCTLTVTNRYYFHSWGQGTLVTVSS
chain 2: EIVMTQSPATLSVSPGERATLSCRASQSVSSNLAWYQQKPGQAPRLLIYGASTRATGIPARFSGSGSGTDFTLTISSLQSEDFAVYYCQQYNNWFSFGQGTKLEIK
B4: ADI-67744 (protein)
chain 1: EVQLVESGGGLVQPGKSLTLSCAASGFTFEDYAMYWVRQAPGKGPEWVSGISWHSGSIDYADSVKGRFTISRDNAKNSLYLQMNSLRAEDTALYHCAKGKAAGHSYYYGMDVWGQGTTVTVSS
chain 2: DIQMTQSPSSLSASVGDRVTITCRASQSISGFLNWYQQKPGRTPEVLIYAASSLQSGVPSRFSGSESGTDFTLTISSLQPEDFATYYCQQSYVTPWTFGQGTKVEIK
B5: ADI-67852 (protein)
chain 1: EVQLVESGGGLVQPGRSLTLSCAASGFTFEDFAMHWVRQAPGKGLEWVSGISWNGGIIGYADSVKGRCTISRDNAKNSLYVHIRSLRVEDTALYYCAKDIQFRDRDCTNGVCSVGGFDYWGQGTLVTVSS
chain 2: EIVMTQSPATLSVSPGERATLSCRASQSVSSNLAWYQQKPGQAPRLLIYGAYTRATGIPARFSGSGSGTEFTLTISSLQSEDFAVYYCQQYNKWPPRTFGQGTKLEIK
B6: ADI-67804 (protein)
chain 1: QITLKESGPTLVKPTQTLTLTCTFSGFSLSTTGEGVGWIRQPPGKALEWLALIYWDDDKRYSPSLKSRLTITKDTSKNQVVLTLTNMDFVDTATYSCAHISCCTTASYNPHFDYWGQGTLVTVSS
chain 2: QSVLTQPPSVSEAPRQRVTISCSGSSSNIGHNAVNWYQHLPGKAPKLVIYYDDLLPSGVSDRFSASKSGTSASLAISGLQSEDEADYYCATWDDSLNVPVFGGGTKLTVL
B7: ADI-67838 (protein)
chain 1: QVQLQESGPGLVKPSQTLSLTCTVSGGSIRSGIYYWYWIRQPAGKGLEWIGRIYPSGISDYNPSLKSRVTMSVDTSKNQFSLKLSSVTAADTAVYFCAGDFWNPPWDVWGQGTTVTVSS
chain 2: QSVLTQPPSASGTPGQRVAISCSGSSSNAGRNTVNWYQQVPGTAPKLLIYKNDQRPSGVPDRFSGSKSGTSASLAISGLQSEDEADYYCAAWDDSLNSRQFGGGTQLTVL
B8: ADI-67722 (protein)
chain 1: QVQLQQWGAGLLRPSETLSLTCAVEGESFNSYYWTWIRQPPGKRLEWIAEIQVGEDITYNPSLKSRVSMSFDTSKKQFSLRLTSVTAADTAIYYCARGVQIPEYCSMNNCPVSDHHYFYMDVWGKGTTVTVSS
chain 2: EIVLTQSPGTLSLSPGESATLSCRASQTISSYYLAWYQQKPGQAPRLLIYGASSRATGIPDRFNGSGSGTDFTLTITRLEPEDFAVYHCQQYGGSRPWTFGQGTKVEIK
B9: ADI-67850 (protein)
chain 1: EVQLVESGGGLVKPGGSLRLSCAASGFTFRSHSINWVRQAPGKGLEWVSSISSTSNYIYYADSVKGRFTISRDNAKNSLYLQMHSLRAEDTAVYYCARDQDSGYDYGFSHFYYGLDVWGQGTTVTVSS
chain 2: DIQMTQSPSSVSASVGDRVTITCRASQGISSWLAWYQQKPGKAPKLLIYAASSLQSGAPSRFSGSGSGTDFTLTISSLQPEDFATYYCQQGNSFPWTFGQGTKVEIK
B10: ADI-67825 (protein)
chain 1: QVQLQQWGAGLLKPSETLSLTCAVYGGSFSGHYWNWIRQPPGKGLEWIGEINHSGSSNYNPSLRSRVTISVDTSKNQLSLKLSSVTAADTAVYYCVRGRAVTTFFFYYDLDVWGQGTTVTVSS
chain 2: QSVLTQPPSASGTPGQRVAVSCSGSSSNIGSHTVNWYQQLPGTAPKLLIYKNDQRPSGVPDRFSGSKSGTSASLAISGLQSENEGDYYCAAWDDSLNGYVFGTGTKVTVL
B11: ADI-67828 (protein)
chain 1: QVQLQESGPGLVKPSETLSLTCTVSGGFVSKYYWSWIRQPPGKGLECIGYVYSSGSTNYNPSLKSRVTISVDTSKNQFSLKLTSVTAADSAVYYCARRGLGYCDSNNCQSAFDIWGQGTMVTVSS
chain 2: DIQMTQSPSSLSASVGDRVTFTCRASQNIRTYLNWYQQKPGQAPKLLIYAASSLQSGVPSRFSGSGSGTDFTLTISSLQPEDFATYFCQQSYSFLYTFGQGTKVEIK
B12: ADI-67814 (protein)
chain 1: QVQLVESGGGVVQPGRSLRLSCAASGFTFSRFGMHWVRQAPGKGLEWVAVISYDGNNKYYADSVKGRFTISRDTSKTTLYLQMNSLRAEDTAVYYCARDLWYYDRSGLLRHDAFDVWGQGTMVTVSS
chain 2: DIQMTQSPSTLSASIGDRVNITCRASQSISSWLAWYQQKPGKAPKLLIYEASNLETGVPSRFSGRGSGTEFTLAISGLQPDDFATYYCQQYNSYLYSFGQGTKLEIK
B13: ADI-67857 (protein)
chain 1: QLQLQESGPGLVKPSETLSLTCSVSGGSISSSDYYWGWIRQPPGKGLEWIGSFYYSGTTYYNPSLKSRVTISVDTSKNHFSLRLSSVTAADTAVYYCAVGGVRFLEWLLQFDYWGQGTLVTVSS
chain 2: QSALTQPPSASGSPGQSVTISCTGTSSDVGASNYVSWYQQHPGKVPKLMIYEVSKRPSGVPDRFSGSKSGNTASLTVSGLQAEDEADYYCSSYAGSSNLVFGTGTKVTVL
B14: ADI-67741 (protein)
chain 1: EVQLVESGGGLVRPGGSLRLSCAASGITFTNTWMNWVRQAPGKGLEWVGRIKSKTHGGTTDYGAPVKGRFTISRDDSKNTLFLQLNSLKTEDTAVYYCTTLSGSSQYSSGWYYYFYYMDVWGKGTTVTVSS
chain 2: EIVLTQSPATLSLSPGERATLSCGASQSVSSSYLAWYQQKPGLAPRLLIYDTSTRATGIPDRFSGSGSGTDFTLTISRLEPEDCAVYYCQHYGSSPPYTFGQGTKLEIK
B15: ADI-67748 (protein)
chain 1: QVQLQESGPGLVKPSQTLSLTCTVSGDSIYSGTYYWNWIRQHPGQGLEWIGYILYSGSTYFNPSLKSRVTMSIDTSKKQFSLRLSSVTAADTAVYYCARSPVIYGTNSGFDYWGQGTLVTVSS
chain 2: ETTLTQSPAFLSATPGDKVNISCKASQDIDAAMNWYQQKPGEAAIFIIQEATTLVPGIPPRFSGSGYGTDFTLTINNIESEDAAYYFCLQHDNFPYTFGQGTKVEIK

How the values were obtained:
Test in all cases: pseudovirus neutralization IC50; higher = weaker neutralization
[1] = target: SARS-CoV-2 Beta spike pseudovirus; conditions: system: VSV particle, 293T-ACE2 cells
Procedure: (§1)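 Single-round reporter pseudovirus mixed with dilutions of yeast-made human IgG and put on ACE2-bearing cells; IC50 from the dose curve.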

[2] = target: SARS-CoV-2 Delta spike pseudovirus; conditions: system: VSV particle, 293T-ACE2 cells
Procedure: as §1

[3] = target: SARS-CoV-2 index (Wuhan-Hu-1) spike pseudovirus
Procedure: as §1

[4] = target: SARS-CoV-2 Omicron BA.1 spike pseudovirus; conditions: system: MLV particle, HeLa-ACE2 cells
Procedure: as §1

[5] = system: VSV particle, 293T-ACE2 cells
[6] = system: MLV particle, HeLa-ACE2 cells

Binder	pseudovirus neutralization IC50 [1] [µg/mL]	pseudovirus neutralization IC50 [2] [µg/mL]	pseudovirus neutralization IC50 [3, 5] [µg/mL]	pseudovirus neutralization IC50 [4] [µg/mL]	pseudovirus neutralization IC50 [3, 6] [µg/mL]
B1	> 1	> 1	–	–	–
B2	> 1	0.522	0.874	–	–
B3	> 1	0.832	0.009	–	–
B4	0.0272	0.0102	0.0154	0.0137	0.00748
B5	> 1	> 1	0.234	1.1	0.0605
B6	> 1	> 1	> 1	–	–
B7	> 1	0.987	0.653	–	–
B8	0.255	0.0122	0.0282	–	0.00736
B9	> 1	> 1	0.62	5.65	0.465
B10	> 1	–	> 1	–	–
B11	> 1	–	> 1	–	–
B12	> 1	> 1	0.464	3.14	0.12
B13	0.0727	0.0159	0.0027	0.0192	0.00284
B14	> 1	0.956	> 1	–	–
B15	0.0322	0.0431	0.0082	4.41	0.00379
